Results reported in the supplement of paper PMC10126150.
Sequences with one replicate were seen in a single cluster, so their values are uncertain.

System: ATP
Test: switch fluorescence ratio, 500 uM ATP over buffer (Cy3 cluster intensity, sum of 5 cycles each) (fold (ratio)); higher = stronger signal-on switching upon ATP binding; sequences stand for … in TCGTCGGCAGCGTCAGATGTGTATAAGAGACAGTTTTTTTTTTTTTTTTTTTTTTTTT…TC
Details: aptamer strand: ATP DNA aptamer (quencher-CACCTGGGGGAGTATTGCGGAGGAAGG + anchor), 100 nM annealed; ATP concentration: 500 uM; one replicate
Summary of the method: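 Values give the fluorescence ratio for each switch-domain sequence, averaged from per-cluster ratios of summed target-cycle to summed buffer-cycle Cy3 intensity. The Cy3-labelled switching-strand clusters sat on a modified Illumina MiSeq flow-cell, were annealed to 100 nM quencher-labelled ATP aptamer, and were imaged in selection buffer, then after 15 min with 500 uM ATP at 22 °C. Five cycles ran with NaOH stripping and re-annealing between them, and clusters outside 100-1000 RFU were excluded.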
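Also: ATP exposure 15 min at 22 °C before imaging.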

Row | Sequence | switch fluorescence ratio
1 | CCGACAGGAG | 1.08
2 | ACTGGTTCGA | 0.955
3 | GGAATAAACC | 1.06
4 | ACGTCAAAGA | 1.16
5 | TCATATGATT | 1.01
6 | AAGCTTGTCG | 0.943
7 | CACTCGCCTT | 1.02
8 | TCGTGAGTTA | 0.959
9 | GGGGCATTAA | 0.97
10 | TATCGATGTC | 1.01
11 | ACAGCAGAGG | 1.04
12 | TCGTTGGCGC | 0.941
13 | TGTCGGTATG | 0.976
14 | AGGTGAGACT | 1.03
15 | CTCTTGGTTA | 1.02
16 | CACGCCTGAC | 1.48
17 | CGGTAGAGGC | 1
18 | AGCGTAAGTT | 0.992
19 | CTGTAATTGC | 1.52
20 | GGCTTCGACA | 1.02
21 | CTGGGCTTGA | 0.943
22 | TCTCGGTTTT | 1.07
23 | TTGCGGTACG | 1.05

Row | Sequence | switch fluorescence ratio
24 | GTGAAAAGG | 0.972
25 | TGGGTGCGA | 1.13
26 | CATAGACAT | 0.975
27 | TCTAGACCCG | 0.961
28 | CCGCATGCAT | 5.14
29 | TTGTGAAGAT | 0.99
30 | TAAGGGGCGC | 0.992
31 | TCCCGGGCTA | 1.13
32 | CCGCTCCTCG | 2.24
33 | GGTATGAATA | 1.03
34 | TTTTATCTAT | 1.01
35 | CTCGACGACC | 1.47
36 | ACTGAGCAGT | 1.08
37 | GGGTTGTGTC | 0.892
38 | TTAAGTTAAG | 0.997
39 | TGCTACATCT | 1.04
40 | GTGGGAGTTC | 0.99
41 | GTTTTCGCTG | 0.973
42 | AGTCTCGCGT | 0.989
43 | GGCACCAC | 1.43
44 | TCATAAGCGG | 1
45 | AAAAGGACCT | 1.66
46 | AGGGGACAAC | 0.984

Row | Sequence | switch fluorescence ratio
47 | AGCCTGTGAC | 1
48 | AGGATATTAA | 1
49 | CAGGGTGTAG | 0.999
50 | ATTCTTAGCA | 1.02
51 | TTTTATTAG | 0.998
52 | CCTTAAGGTT | 0.992
53 | CTACCTGAGC | 1.04
54 | AATGATTCGA | 0.988
55 | GCTTCCAATT | 1.07
56 | TTGTGCCTGC | 1.02
57 | TTACGCCAGG | 1.54
58 | GGTTAAGATT | 0.958
59 | TTGGCCTGAA | 1.04
60 | GCGGCCGGC | 1.09
61 | GGACATCTTA | 0.991
62 | ACGAGTCAGC | 1.08
63 | CGTCCCCGAC | 1.07
64 | AGCAGCGATG | 0.964
65 | TCGTTGTATC | 1.01
66 | AATCTGATAA | 1
67 | GCGCTTAGGA | 1.04
68 | TGCAAATATA | 0.979
69 | TGGGAGCCAG | 0.999

Row | Sequence | switch fluorescence ratio
70 | TGGACTACAC | 1.19
71 | AATAGTGTAT | 0.952
72 | GGGTGTTAGG | 1
73 | GTTATCATGG | 1.01
74 | TAAAACCGTA | 1.1
75 | GTATGGGGAA | 1.01
76 | AAAAGGCCTG | 0.95
77 | CCTACTGGAC | 1.19
78 | CAGTGCGGGG | 0.985
79 | TCAGATGGTA | 0.979
80 | AGAGCTAAAC | 1.14
81 | AAATCCTTA | 1.02
82 | AAATTGCACG | 1.05
83 | GGTAAGTATG | 0.991
84 | TTCTTTCCCT | 1.1
85 | AATTCGGCG | 1.05
86 | AGGTCAGGGA | 1.04
87 | TATTCAGTTA | 0.986
88 | GCCATACCTC | 3.06
89 | TTGGCCAGG | 1.04
90 | ATGGAGTCCA | 0.983
91 | TGAGTCGTTT | 0.967
92 | TCAATCATG | 1.02

Row | Sequence | switch fluorescence ratio
93 | TAGCTTAAGC | 0.983
94 | AATGGCTTTA | 1.01
95 | TCAAGAATTC | 0.978
96 | CACGTAATTC | 1.83
97 | TCCAAATAAG | 0.957
98 | TTCCAAGAGC | 1.04
99 | AGTATGGAGG | 1.01
100 | CGCGACCCTG | 1.04
101 | TTCCGGCGCG | 1.35
102 | TATTTCATGG | 1.07
103 | GGTTGTATAG | 0.948
104 | GCTACAATGA | 1.02
105 | GGGGAGGGTT | 1.05
106 | CTTAGGTTCT | 0.986
107 | CTTTACCAAG | 1.04
108 | AAGGATGGTT | 1.03
109 | CGATTGTCCG | 1
110 | AGATGGGAGA | 0.99
111 | TATAAGACT | 0.997
112 | TGGATGCAGT | 0.947
113 | AATAGTTATA | 1.02
114 | AGTTCCTGGT | 0.994
115 | TTCGTTACTA | 0.979

Row | Sequence | switch fluorescence ratio
116 | TACTATCAC | 1.25
117 | AGCGCAGGTG | 4.27
118 | ACCTACTGGG | 1.02
119 | CAGAGCCGTC | 1.01
120 | AAGGTTTATG | 0.979
121 | CGGGTCCTGG | 0.975
122 | CTGGTAATCG | 0.996
123 | GGTCTAGTGT | 0.987
124 | GACGCGTACT | 3.13
125 | ATTGCGTGGC | 1.03
126 | ACAGTTGAAA | 0.996
127 | GGACCCGGGC | 1.07
128 | CCCGACAGCT | 1.6
129 | ATGTTCCGTT | 1.01
130 | CCCGAAGTGA | 1.52
131 | GCCGTCCATA | 1
132 | AGACGGTCTA | 1.02
133 | ATGAGTGTCT | 0.969
134 | CCAAGCTGCG | 1.03
135 | CTATTGAGAA | 1.02
136 | CGATTACCCG | 1.05
137 | TAGTCAGGT | 1
138 | TGTACTATGT | 1.04

Row | Sequence | switch fluorescence ratio
139 | ATCCTTGCCC | 1.15
140 | AGCAAGCGCT | 0.997
141 | GTAGGTAGAT | 0.974
142 | GATAGGCCCT | 0.979
143 | TCGAACCAGC | 1.06
144 | CCTTTCCTCA | 1.61
145 | GCAGGTATCG | 0.977
146 | GAGTGTAGGT | 1.07
147 | ATGGTGAGTC | 0.969
148 | AATCAGGAGC | 0.967
149 | AATTAGTTA | 1.02
150 | GGTATAAGAG | 0.945
151 | GCGTTGGTTT | 0.998
152 | CGATTGGATA | 1.01
153 | ACGTCGCTAT | 1.47
154 | CGTGAGAACG | 0.965
155 | TATAGACAAT | 1.02
156 | TGGCTGAGCA | 1.04
157 | TAGTGTGGTG | 0.925
